Measured values from the supplement of paper PMC8728848.
Some of the results follow.

How the values were obtained:
Experiment in all cases: glycan array binding signal (z-score within array); higher = stronger binding
Conditions in all cases: glycan notation: IUPAC condensed, linker removed
[1] = target: Fuc(a1-2)Gal
Method in brief: (§1)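 The binding signal is a Z-score computed within each array and averaged over linkers. Arrays of the same protein sequence at different concentrations or buffers were also averaged together. Data originate from 3228 arrays in the Consortium for Functional Glycomics database, kept only where the protein sequence was available.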

[2] = target: Fuc(a1-2)Gal(b1-3)GalNAc
Method in brief: as §1

[3] = target: Fuc(a1-2)Gal(b1-3)GalNAc(a1-3)[Fuc(a1-2)]Gal(b1-4)Glc
Method in brief: as §1

[4] = target: Fuc(a1-2)Gal(b1-3)GalNAc(a1-3)[Fuc(a1-2)]Gal(b1-4)GlcNAc
Method in brief: as §1

[5] = target: Fuc(a1-2)Gal(b1-3)GalNAc(b1-3)Gal
Method in brief: as §1

[6] = target: Fuc(a1-2)Gal(b1-3)GalNAc(b1-3)Gal(a1-4)Gal(b1-4)Glc
Method in brief: as §1

[7] = target: Fuc(a1-2)Gal(b1-3)GalNAc(b1-4)[Neu5Ac(a2-3)]Gal(b1-4)Glc
Method in brief: as §1

[8] = target: Fuc(a1-2)Gal(b1-3)GlcNAc
Method in brief: as §1

[9] = target: Fuc(a1-2)Gal(b1-3)GlcNAc(b1-2)Man(a1-3)[Fuc(a1-2)Gal(b1-3)GlcNAc(b1-2)Man(a1-6)]Man(b1-4)GlcNAc(b1-4)GlcNAc
Method in brief: as §1

[10] = target: Fuc(a1-2)Gal(b1-3)GlcNAc(b1-2)Man(a1-3)[Fuc(a1-2)Gal(b1-3)GlcNAc(b1-2)Man(a1-6)]Man(b1-4)GlcNAc(b1-4)[Fuc(a1-6)]GlcNAc
Method in brief: as §1

[11] = target: Fuc(a1-2)Gal(b1-3)GlcNAc(b1-3)Gal(b1-4)Glc
Method in brief: as §1

[12] = target: Fuc(a1-2)Gal(b1-3)GlcNAc(b1-3)GalNAc
Method in brief: as §1

[13] = target: Fuc(a1-2)Gal(b1-3)GlcNAc(b1-3)[Fuc(a1-2)Gal(b1-3)GlcNAc(b1-6)]GalNAc
Method in brief: as §1

[14] = target: Fuc(a1-2)Gal(b1-3)GlcNAc(b1-3)[Gal(b1-4)GlcNAc(b1-6)]Gal(b1-4)Glc
Method in brief: as §1

[15] = target: Fuc(a1-2)Gal(b1-3)GlcNAc(b1-3)[Neu5Ac(a2-6)Gal(b1-4)GlcNAc(b1-6)]Gal(b1-4)Glc
Method in brief: as §1

[16] = target: Fuc(a1-2)Gal(b1-3)GlcNAc6S
Method in brief: as §1

[17] = target: Fuc(a1-2)Gal(b1-3)[Fuc(a1-4)]GlcNAc
Method in brief: as §1

[18] = target: Fuc(a1-2)Gal(b1-3)[Fuc(a1-4)]GlcNAc(b1-2)Man(a1-3)[Fuc(a1-2)Gal(b1-3)[Fuc(a1-4)]GlcNAc(b1-2)Man(a1-3)]Man(b1-4)GlcNAc(b1-4)GlcNAc
Method in brief: as §1

[19] = target: Fuc(a1-2)Gal(b1-3)[Fuc(a1-4)]GlcNAc(b1-2)Man(a1-3)[Fuc(a1-2)Gal(b1-3)[Fuc(a1-4)]GlcNAc(b1-2)Man(a1-6)]Man(b1-4)GlcNAc(b1-4)[Fuc(a1-6)]GlcNAc(b1-4)[Fuc(a1-6)]GlcNAc
Method in brief: as §1

[20] = target: Fuc(a1-2)Gal(b1-3)[Fuc(a1-4)]GlcNAc(b1-3)[Fuc(a1-3)[Gal(b1-4)]GlcNAc(b1-6)]Gal(b1-4)Glc
Method in brief: as §1

[21] = target: Fuc(a1-2)Gal(b1-3)[Fuc(a1-4)]GlcNAc(b1-3)[Gal(b1-4)GlcNAc(b1-6)]Gal(b1-4)Glc
Method in brief: as §1

[22] = target: Fuc(a1-2)Gal(b1-4)Glc
Method in brief: as §1

[23] = target: Fuc(a1-2)Gal(b1-4)Glc6S
Method in brief: as §1

[24] = target: Fuc(a1-2)Gal(b1-4)GlcNAc
Method in brief: as §1

[25] = target: Fuc(a1-2)Gal(b1-4)GlcNAc(b1-2)Man
Method in brief: as §1

[26] = target: Fuc(a1-2)Gal(b1-4)GlcNAc(b1-2)Man(a1-3)[Fuc(a1-2)Gal(b1-4)GlcNAc(b1-2)Man(a1-6)]Man(b1-4)GlcNAc(b1-4)GlcNAc
Method in brief: as §1

[27] = target: Fuc(a1-2)Gal(b1-4)GlcNAc(b1-2)Man(a1-3)[Fuc(a1-2)Gal(b1-4)GlcNAc(b1-2)Man(a1-6)]Man(b1-4)GlcNAc(b1-4)[Fuc(a1-6)]GlcNAc
Method in brief: as §1

[28] = target: Fuc(a1-2)Gal(b1-4)GlcNAc(b1-2)[Fuc(a1-2)Gal(b1-4)GlcNAc(b1-4)]Man(a1-3)[Fuc(a1-2)Gal(b1-4)GlcNAc(b1-2)Man(a1-6)]Man(b1-4)GlcNAc(b1-4)GlcNAc
Method in brief: as §1

[29] = target: Fuc(a1-2)Gal(b1-4)GlcNAc(b1-3)Gal(b1-4)GlcNAc
Method in brief: as §1

[30] = target: Fuc(a1-2)Gal(b1-4)GlcNAc(b1-3)Gal(b1-4)GlcNAc(b1-2)Man(a1-3)[Fuc(a1-2)Gal(b1-4)GlcNAc(b1-3)Gal(b1-4)GlcNAc(b1-2)Man(a1-6)]Man(b1-4)GlcNAc(b1-4)GlcNAc
Method in brief: as §1

[31] = target: Fuc(a1-2)Gal(b1-4)GlcNAc(b1-3)Gal(b1-4)GlcNAc(b1-3)Gal(b1-4)GlcNAc
Method in brief: as §1

[32] = target: Fuc(a1-2)Gal(b1-4)GlcNAc(b1-3)GalNAc
Method in brief: as §1

[33] = target: Fuc(a1-2)Gal(b1-4)GlcNAc(b1-3)[Fuc(a1-2)Gal(b1-4)GlcNAc(b1-6)]GalNAc
Method in brief: as §1

[34] = target: Fuc(a1-2)Gal(b1-4)GlcNAc(b1-3)[Fuc(a1-3)[Gal(b1-4)]GlcNAc(b1-6)]Gal(b1-4)Glc
Method in brief: as §1

[35] = target: Fuc(a1-2)Gal(b1-4)GlcNAc(b1-6)GalNAc
Method in brief: as §1

[36] = target: Fuc(a1-2)Gal(b1-4)GlcNAc6S
Method in brief: as §1

[37] = target: Fuc(a1-2)Gal(b1-4)[Fuc(a1-3)]GlcNAc
Method in brief: as §1

[38] = target: Fuc(a1-2)Gal(b1-4)[Fuc(a1-3)]GlcNAc(b1-2)Man(a1-3)[Fuc(a1-2)Gal(b1-4)[Fuc(a1-3)]GlcNAc(b1-2)Man(a1-6)]Man(b1-4)GlcNAc(b1-4)[Fuc(a1-6)]GlcNAc
Method in brief: as §1

[39] = target: Fuc(a1-2)Gal(b1-4)[Fuc(a1-3)]GlcNAc(b1-2)[Fuc(a1-2)Gal(b1-4)[Fuc(a1-3)]GlcNAc(b1-4)]Man(a1-3)[Fuc(a1-2)Gal(b1-4)[Fuc(a1-3)]GlcNAc(b1-2)Man(a1-6)]Man(b1-4)GlcNAc(b1-4)GlcNAc
Method in brief: as §1

[40] = target: Fuc(a1-2)Gal(b1-4)[Fuc(a1-3)]GlcNAc(b1-3)Gal(b1-4)[Fuc(a1-3)]GlcNAc
Method in brief: as §1

[41] = target: Fuc(a1-2)Gal(b1-4)[Fuc(a1-3)]GlcNAc(b1-3)Gal(b1-4)[Fuc(a1-3)]GlcNAc(b1-3)Gal(b1-4)[Fuc(a1-3)]GlcNAc
Method in brief: as §1

[42] = target: Fuc(a1-2)Gal(b1-4)[Fuc(a1-3)]GlcNAc(b1-3)GalNAc
Method in brief: as §1

[43] = target: Fuc(a1-2)Gal(b1-4)[Fuc(a1-3)]GlcNAc(b1-3)[Neu5Ac(a2-6)Gal(b1-4)GlcNAc(b1-6)]Gal(b1-4)Glc
Method in brief: as §1

[44] = target: Fuc(a1-2)Gal3S(b1-4)GlcNAc
Method in brief: as §1

[45] = target: Fuc(a1-2)Gal6S(b1-3)GlcNAc
Method in brief: as §1

B1: Epa10 (protein)
chain: MNEKIFRYLTLLFLFELARSLPVEDKLNIKKVFEKRAVDFTPFAHYPRPEGCSSPPNSVSVGLHMNLYNYPYLYVKPSTKGMFTNDTNSDADGETDGDSAGGIEGRAGQCWNPEYQDPNFPRFGYKQYGEFGASDNVNGDISWDHNEFTEGCKPVLAALPPGYNYPDEITFSNFTMVLSGYFKPKTSGVYKFELKADDFILFNFGAKNAFECCNREESIDNFGPYVAYAMWPNQADQELEVYLFEDSYYPLRLFYNNRDYHSKFKIGFYPPGQTTITFDFDGYLFMLDDTGNECRDSIRYRTVCDDKVVDDTTYSTRYSTSMVPGGGSDVITIYYIRMKCEEEDCLGQWDPINNVCYSPDDCADDGGYWNGQMCDQSCKLEGGIVNPDTGDCDKSCIESGGFLDENGNCDTTCRDDGGMLVEGQCDYQCKEAGGILVGDHCDTTCVDSGGKLNEDGTCDHSCRDQGGQLDENGECDTSCKDSGGMLIEGECDTSCKDEGGQLDDNNECINHCKDQGGIIDENGNCDTSCKDSGGKLDESGACDTSCRDDGGIIDENGNCNTTCRDDGGIIVGDHCDTSCRDAGGILIEDHCDTTCRDSGGKLNEDGTCDHSCRDQGGQLDENGKCDYSCKNGGGKLDEDGNCDMSCKENGGKLDENGDCDLSCKEDGGKLDGNGDCDYSCKEEGGVIDESGNCNTTCKDSGGQIIDGECNYGCIEVGGVVIDGECDTSCIDSGGILDGDGNCDRSCIESGGVLEDGACNTTCRDSGGQLNVDGTCDTSCRDDGGMLVEGQCDYQCKEAGGILEDGECVFPPTSSSTSETSSTTDQSSLQSDDSSMESSSTPMDSSTIESSSSEIITSESESESVPIASSSSEVMTSESESESIPILTSSSEIPIASSSSEIPVASSSSEIIIPESESESVPVASSSSEIPIASSSSEIPVASSSSEIPVASSSSEIIIPESESESIPIESTSSEAVSSRSESDSSYPTPTPTTTTITTWPNPIQPTTSNSSPIVSSSTETPGIAESSSRISDLESSRRTSILGDDRTRTRTTITSTITEDGQIITITTTVTGFVPEPTGETEGNGSDDENPENPIENNTDENEFLDPEFTDDIPDDPAGPEDNGNGPVNPEQGNDNDPVNLEDSGNNGAVNPEQAPVNDEDNGGNDPVNPEQDNNNGPANPGQDSTNGSGNSDQIDNNPPTPEENAGDGNSNGNDPADPSRRTSILGDERTRASPGGTSQPTGANGNVNGNSPGANVNGGGTGNSNNNNNNNNNNNNGNAPNGGDGSNGDANQGPSRRTSLLGDERTRAGQAAPTGGSSPDNGIAGDTSNNGGAIVSQQVDDGGAGSPRRTSILGDVRSRTTLNGEVLNFEGSGVRRAVAGNLALPLMMVGLVFNL
glycan array binding signal (z-score) [1]: -0.289
glycan array binding signal (z-score) [2]: -0.217
glycan array binding signal (z-score) [3]: -0.258
glycan array binding signal (z-score) [4]: -0.146
glycan array binding signal (z-score) [5]: -0.197
glycan array binding signal (z-score) [6]: -0.249
glycan array binding signal (z-score) [7]: -0.009
glycan array binding signal (z-score) [8]: -0.264
glycan array binding signal (z-score) [9]: -0.017
glycan array binding signal (z-score) [10]: -0.257
glycan array binding signal (z-score) [11]: -0.271
glycan array binding signal (z-score) [12]: -0.211
glycan array binding signal (z-score) [13]: -0.174
glycan array binding signal (z-score) [14]: -0.226
glycan array binding signal (z-score) [15]: -0.195
glycan array binding signal (z-score) [16]: -0.163
glycan array binding signal (z-score) [17]: -0.222
glycan array binding signal (z-score) [18]: -0.135
glycan array binding signal (z-score) [19]: -0.125
glycan array binding signal (z-score) [20]: -0.275
glycan array binding signal (z-score) [21]: -0.215
glycan array binding signal (z-score) [22]: -0.164
glycan array binding signal (z-score) [23]: -0.148
glycan array binding signal (z-score) [24]: -0.239
glycan array binding signal (z-score) [25]: -0.188
glycan array binding signal (z-score) [26]: 0
glycan array binding signal (z-score) [27]: 0.036
glycan array binding signal (z-score) [28]: -0.245
glycan array binding signal (z-score) [29]: -0.202
glycan array binding signal (z-score) [30]: -0.132
glycan array binding signal (z-score) [31]: -0.22
glycan array binding signal (z-score) [32]: -0.256
glycan array binding signal (z-score) [33]: -0.265
glycan array binding signal (z-score) [34]: -0.284
glycan array binding signal (z-score) [35]: -0.172
glycan array binding signal (z-score) [36]: -0.198
glycan array binding signal (z-score) [37]: -0.367
glycan array binding signal (z-score) [38]: -0.101
glycan array binding signal (z-score) [39]: -0.185
glycan array binding signal (z-score) [40]: -0.228
glycan array binding signal (z-score) [41]: -0.342
glycan array binding signal (z-score) [42]: -0.094
glycan array binding signal (z-score) [43]: -0.219
glycan array binding signal (z-score) [44]: -0.268
glycan array binding signal (z-score) [45]: -0.246
